Laboratory results published in publication PMC4336329 (PLoS ONE, 2015).
In all, about 310,000 compounds went through this assay and about 2,200 (0.71%) showed an effect of 50% or more. Effects have a minus sign here. Some of the results follow.

These compounds were tested against human ether-à-go-go-related gene (hERG) potassium channel (human, UniProt Q12809) (assay: primary screen, population patch clamp on CHO cells stably expressing hERG).
human ether-à-go-go-related gene (hERG) potassium channel, sequence (Q12809 whole entry, looked up): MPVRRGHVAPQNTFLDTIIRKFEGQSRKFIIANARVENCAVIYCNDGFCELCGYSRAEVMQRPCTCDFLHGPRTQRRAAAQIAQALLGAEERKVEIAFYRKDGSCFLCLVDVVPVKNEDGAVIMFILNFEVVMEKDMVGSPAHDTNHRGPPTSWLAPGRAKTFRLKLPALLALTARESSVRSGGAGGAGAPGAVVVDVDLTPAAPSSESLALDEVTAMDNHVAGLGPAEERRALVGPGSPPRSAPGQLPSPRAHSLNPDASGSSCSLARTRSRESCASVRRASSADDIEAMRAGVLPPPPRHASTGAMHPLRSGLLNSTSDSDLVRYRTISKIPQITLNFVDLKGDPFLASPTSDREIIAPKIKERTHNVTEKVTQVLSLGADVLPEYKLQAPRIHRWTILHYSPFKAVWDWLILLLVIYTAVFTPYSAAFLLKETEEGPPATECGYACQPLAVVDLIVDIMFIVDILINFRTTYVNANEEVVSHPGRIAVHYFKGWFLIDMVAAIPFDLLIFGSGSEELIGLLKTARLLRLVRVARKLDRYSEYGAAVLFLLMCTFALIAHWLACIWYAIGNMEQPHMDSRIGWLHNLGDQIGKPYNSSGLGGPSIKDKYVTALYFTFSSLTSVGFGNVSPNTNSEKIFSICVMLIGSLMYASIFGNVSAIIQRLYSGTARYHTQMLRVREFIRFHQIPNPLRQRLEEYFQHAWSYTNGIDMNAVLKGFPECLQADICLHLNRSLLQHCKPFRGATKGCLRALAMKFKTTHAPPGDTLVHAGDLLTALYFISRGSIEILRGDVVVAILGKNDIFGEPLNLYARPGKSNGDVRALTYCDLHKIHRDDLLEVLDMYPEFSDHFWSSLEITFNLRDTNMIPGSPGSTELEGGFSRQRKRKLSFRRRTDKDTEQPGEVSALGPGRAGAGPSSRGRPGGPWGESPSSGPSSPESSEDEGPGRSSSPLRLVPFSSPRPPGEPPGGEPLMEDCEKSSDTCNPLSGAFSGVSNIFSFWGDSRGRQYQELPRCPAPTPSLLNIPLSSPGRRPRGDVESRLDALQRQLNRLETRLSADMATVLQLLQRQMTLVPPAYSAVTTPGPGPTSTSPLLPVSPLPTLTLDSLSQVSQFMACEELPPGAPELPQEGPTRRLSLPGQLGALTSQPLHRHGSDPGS

SMILES | hERG current change (%, negative = inhibition) at 1uM [%]
CC(C)Cc1nnc(NC(=O)c2cc(S(=O)(=O)N(C)C)ccc2N2CCCC2)s1 | 4.69
CCOC(=O)c1c(COC(=O)c2ccco2)nc2ccccc2[n+]1[O-] | 2.05
O=C(Nc1ccc(N2CCOCC2)cc1)C1CCCN(S(=O)(=O)c2cccc(C(F)(F)F)c2)C1 (stereo not shown) | 11
Cc1ccc(S(=O)(=O)Nc2cc(C(F)(F)F)ccc2N2CCOCC2)c(C)c1 | 8.79
CC1CCC(NC(=O)COC(=O)CSc2ccc(C(N)=O)cc2[N+](=O)[O-])CC1 (stereo not shown) | 14.5
CC(C)(C)c1ccc(OCCNC(=O)c2ncn[nH]2)cc1 | 5.94
Cc1ccccc1SCC(=O)Nc1cc(C(F)(F)F)ccc1N1CCOCC1 | 10.8
Cc1ccc2cc(CN(C(=O)c3ccncc3)C(C)C)c(=O)[nH]c2c1 | 1.84
CC(Cc1ccccn1)NC(=O)CCc1nnc(C2CCCCC2)o1 (stereo not shown) | 11.4
N=c1nc(N)nc2n1NC(c1ccc(F)cc1)=CS2 | -3.69
CCOC(=O)C(C#N)c1ccccn1 (stereo not shown) | 10.8
Cc1oc(-c2ccccc2)cc1C(=O)Nc1cccc(/C=C\C(=O)O)c1 | 3.96
CCOc1cccc(CN2CCN(Cc3ccc(C)o3)C(CCO)C2)c1O (stereo not shown) | -0.204
CC(=O)Oc1cc2cccc(OC(C)=O)c(=O)c2c(OC(C)=O)c1OC(C)=O | 5.64
O=C(Nc1cccs1)OCCN1CCN(Cc2ccccc2)CCC1=O | 4.05
CCOc1ccc(CN(C(=O)c2oc3ccccc3c2C)C2CCS(=O)(=O)C2)cc1 (stereo not shown) | -6.11
COC1=CC(=O)OC(/C=C/c2ccccc2)C1 (stereo not shown) | 0.591
Cc1sc2ccccc2[n+]1CC(=O)c1ccccc1.[Br-] | 18.4
CC(C)(C)c1cn(-c2ccc(F)cc2)c(=S)[nH]1 | -5.57
CCN(CC)C(=O)Oc1ccc2oc(=O)cc(-c3cc4cccc(OC)c4o3)c2c1 | 16
CCOc1ccccc1NC(=O)NCc1ccco1 | 11
COc1ccc(Cl)cc1C(=O)NCCCn1ccnc1 | 12.2

SMILES | hERG current change (%, negative = inhibition) at 1uM [%]
COc1cc(CN2CCN(Cc3c[nH]c4ccccc34)CC2CCO)cc(OC)c1 (stereo not shown) | 6.2
Cc1ccc(C(=O)CSc2nnc(COc3cccc(C)c3)o2)cc1 | 6.57
N/C(=N/OC(=O)c1cccc([N+](=O)[O-])c1)c1cccc([N+](=O)[O-])c1 | 9.82
COc1ccc(C(C)NC(=O)Nc2ccc(C(C)=O)cc2)cc1OC (stereo not shown) | 10.8
CCNS(=O)(=O)c1ccc(NC(=O)c2ccc(Cn3cc([N+](=O)[O-])cn3)o2)cc1 | -5.91
CC(O)C1C(=O)OC2(C)CC(C)(C)NC(=S)N12 (stereo not shown) | 4.14
Cc1cc(NC(=O)c2ccc(Cl)cc2)cc(C)c1OCC(=O)N1CCOCC1 | -0.639
CCOc1cc(CNCCCN2CCOCC2)ccc1OCC(=O)Nc1cccc2ccccc12.Cl | 6.79
CCc1nc2ccccc2c(C(=O)O)c1C | 4.07
CN(C)S(=O)(=O)c1ccc(C(=O)Nc2cccnc2)cc1 | -19.3
Cn1c(=O)[nH]c(=O)c2c1nc(SCCN1CCCCC1)n2Cc1ccccc1 | -81.6
O=C(NC(=S)Nc1ccc(Cl)c(C(=O)O)c1)c1ccco1 | 4.24
CCOc1ccc(CC2NCCc3cc(OCC)c(OCC)cc32)cc1OCC (stereo not shown) | 5.35
N#C/C(=C\c1cccnc1)C(=O)Nc1ccc(S(N)(=O)=O)cc1 | 0.87
N#Cc1ccc(CSc2nnc(-c3ccccn3)n2-c2ccc(Cl)cc2)cc1 | -4.32
Cc1ccc(N2CC(C(=O)Nc3ccc(S(=O)(=O)NCC4CCCO4)cc3)CC2=O)cc1 (stereo not shown) | 11.4
O=C(O)Cc1sc(-c2ccc(Cl)cc2)nc1-c1ccccc1 | 1.43
CCCCN(CCO)CCCC | 8.17
Fc1ccc(-n2cnnn2)c(F)c1 | 9.59
N#Cc1c(NC(=O)c2nc3ncccn3n2)sc2c1CCCCC2 | 8.49
CN(Cc1cnn(C)c1)C(=O)C1CCC(=O)N(Cc2ccc(Cl)cc2)C1 (stereo not shown) | 14.4
N#C/C(=C\c1ccc(O)c(Br)c1)C(=O)N1CCCCC1 | 11

SMILES | hERG current change (%, negative = inhibition) at 1uM [%]
N#CCCCn1c(-c2ccccc2)noc1=O | 2.95
Cc1c(C(=O)N2CCOCC2)c(S(=O)(=O)Nc2ccc(F)cc2)c(C)n1C | 15.7
Cc1cc2nc3s/c(=C/c4ccc(-c5ccccc5C(=O)O)o4)c(=O)n3c2cc1C | 14.8
COc1ccc(S(=O)(=O)N2CCOCC2)cc1NC(=O)[C@@H]1CCCN1C(=O)c1cccs1 | 0.964
COc1ccnc(N=CNOCc2ccc(Cl)cc2)c1C#N | 15
Cc1ccc(-c2nc(=O)[nH]c3ccccc23)cc1 | 4.15
O=C(Nc1cccc(/C=C/c2ccccn2)c1)c1ccc(-n2cncn2)c([N+](=O)[O-])c1 | -1.91
CCOC(=O)C1=C(O)C(=O)N(c2ccc(S(N)(=O)=O)cc2)C1c1ccc(Br)cc1 (stereo not shown) | 6.14
CN(C)CCCNC(=O)CC(c1ccc(F)cc1)c1ccco1 (stereo not shown) | -9.46
O=C(O)C1CCC(N2C(=O)c3c(Cl)c(Cl)c(Cl)c(Cl)c3C2=O)CC1 (stereo not shown) | 10.2
CCC(C)(C)NC(=O)CN(C(=O)CNS(=O)(=O)c1ccccc1)c1ccccc1 | 9.05
Cc1ccc(OCC(=O)NCc2ccco2)cc1C | 5.85
COc1ccc(C2=NO[C@@H]3C(=O)N(c4cccc(C)c4C)C(=O)[C@H]23)cc1OC | 7.43
Cc1ccc(CC2C(=O)N(c3cc(C)ccc3C)C(=O)C2C)cc1 (stereo not shown) | 12.5
COCCN(CCOC)C(=S)Nc1ccccc1 | 18.3
Cc1ccccc1Nc1nc(N)nc(COC(=O)c2ccc(S(=O)(=O)N(C)C)cc2)n1 | 2.76
CC1CCc2c(sc(NC(=O)c3c([N+](=O)[O-])cnn3C)c2C(N)=O)C1 (stereo not shown) | 11.7
Cc1ccc(NC(=O)c2cc(S(=O)(=O)NCCC3=CCCCC3)ccc2F)cc1 | 5.01
NNC(=O)CN1C(c2cccc(Cl)c2)=Nc2ccc(Br)cc2C1c1ccccc1 (stereo not shown) | -0.199
Cc1cccc(-c2nnn(CC/C(N)=N/O)n2)c1 | 8.75
O=C1CC(C(=O)N2CCC3(CC2)OCCO3)CN1CCc1ccccc1 (stereo not shown) | 13.1
O=[N+]([O-])c1ccc(N2CCCCC2)cc1SCCO | 7.84

SMILES | hERG current change (%, negative = inhibition) at 1uM [%]
Cc1cc(C)cc(OCC(=O)Nc2ccc(CN3CCCCC3)cc2)c1 | -4.82
COc1ccc(-c2cn3cccnc3n2)cc1NC(=O)c1ccc(Br)o1 | 1.4
Cc1ccc(NC(=O)N(Cc2cc3cc(C)cc(C)c3[nH]c2=O)CC2COCCO2)cc1 (stereo not shown) | 4.06
Cc1ccc(-c2nc3cc(Br)cnc3nc2-c2ccc(C)cc2)cc1 | 9.6
COc1ccc(-c2oc3ccccc3c(=O)c2OC(C)=O)cc1 | 7.41
N#CC(c1ccc(Cl)cc1)c1nc2ccccc2nc1C(F)(F)F (stereo not shown) | 15.2
COCCCNc1nc2c(c(=O)n(Cc3cccc(Br)c3)c(=O)n2C)n1C | 12.7
COc1cccc(C(=O)NCC(c2ccco2)N2CCc3ccccc3C2)c1 (stereo not shown) | 7.01
Cn1c(SCC(=O)Nc2ccc(F)cc2F)nnc1-c1cccnc1 | -6.16
O=C(CSc1nnc(-c2cccnc2)n1Cc1ccccc1)NCc1ccco1 | 8.7
COCCN(CC(=O)Nc1cccc(C)c1C)C(=O)c1cc(-c2cccs2)nn1-c1ccccc1 | 10.7
O=C(O)CCS(=O)(=O)Cc1ccccc1Cl | 4.75
Cc1nc2ccccc2c2c1CC(C(C)(Cl)Br)O2 (stereo not shown) | -25.1
O=S(=O)(Cc1ccccc1)N1CCN(Cc2ccc(F)cc2Cl)CC1 | 7.32
COc1ccc(NC(=O)COC(=O)C2CCC(C(C)(C)C)CC2)c([N+](=O)[O-])c1 (stereo not shown) | 18.2
COc1cc(/C=N/NC(=O)/C(=C\c2ccc([N+](=O)[O-])cc2)NC(=O)c2ccccc2)cc(OC)c1O | 6.44
Cc1ccc(OCCOCCN2CCN(C)CC2)c(C(C)(C)C)c1.O=C(O)C(=O)O | 13.2
COc1ccc(CN2C(=O)NC(=O)/C(=C\c3ccco3)C2=O)cc1 | 22
C=CCNC(=S)N1CCC(C(=O)c2ccc(F)cc2)CC1 | 5.26
O=C(NCCS(=O)(=O)c1ccc(Br)cc1)c1ccc(F)cc1 | 11.1
O=C(CCN1C(=O)/C(=C/c2ccccc2Cl)SC1=S)NCCCN1CCOCC1 | 7.34
COc1ccc2c(c1OC)C(=O)N1c3ccccc3COC21 (stereo not shown) | 4.85
